The record followed here is the supplement of paper PMC11417369.

The list shows a part of the results.

The test system of this assay is PF3D7_0420300 AP2 domain 1 (GST-tagged). The experiment in a line: gcPBM binding intensity (ln(normalized median fluorescence intensity)); higher = stronger DNA binding. An outline of the steps:
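Plasmodium falciparum DNA-binding domains carrying a GST tag were expressed in E. coli and applied for 1 h, at about 25 μg on average, to an Agilent 4 × 180k array. The array held primer-extended double-stranded 36-bp intergenic genomic probes together with negative controls, and binding took place in 1× PBS with 1% milk, 0.2 mg/ml BSA, 0.5% salmon testes DNA and 0.03% Triton X-100. An Alexa488 anti-GST antibody detected bound protein, and the array was scanned at 488 nm. Binding intensity is taken as the highest Masliner-normalised natural-log median intensity across replicate spots of either probe orientation.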
Take “CATCCACATATATGTACACACATATATATATATATA [CACACA_site2964]”: the “gcPBM binding intensity (ln)” value stood at 9.49.

As to “TTTTTTTTTTTTTTTGCACACACATTGAATTATTAT [CACACA_site198]”, the “gcPBM binding intensity (ln)” value was found to be 9.59.

For the sequence “TACATATAAATATATAAATATAAATAAATAAATAAA [XGTACX_negctrl_site180]”, the “gcPBM binding intensity (ln)” value is 9.25.

“AAATGGAAAAGGTGTACACAAAAAAAAGGGAAAAGC [CACACA_site5331]”: the “gcPBM binding intensity (ln)” value worked out at 9.96.

Consider “CTTTATATATAGTGTACACATTAAACAAATCTCAAT [CACACA_site5845]”, for which the “gcPBM binding intensity (ln)” value is 9.17.

Take “TTACCAAAAACCTCAAGTACAAAAAATCCCTAATAT [XGTACX_site2313]”: the “gcPBM binding intensity (ln)” value stood at 9.37.

For “ATAGTATACAGACACACACACACACGGATATAAATA [CACACA_site6914]”, the “gcPBM binding intensity (ln)” value was 10.3.

Regarding “ATATATATATATATATGTACTAAATATTCATCCTTA [XGTACX_site6039]”, the “gcPBM binding intensity (ln)” value is 9.08.

As to “AAGTTTAAGAAATAATTCATATTTACTTCCATCCTC [GTGCAC_negctrl_site494]”, the “gcPBM binding intensity (ln)” value worked out at 9.06.

On to “TATAAGAGAAGAAGAAAAAAAAGGTTTCTATAGAAA [XGTACX_negctrl_site421]”, for which the “gcPBM binding intensity (ln)” value was 9.17.

In the case of “CATATAGTAATATATACACACACTTGTCTTGTAAAA [CACACA_site8238]”, the “gcPBM binding intensity (ln)” value was 9.53.

Take “AAGAAGCATAAATGTACACACATATTTATATATTAA [CACACA_site1332]”: the “gcPBM binding intensity (ln)” value worked out at 9.5.

For the sequence “ATATTTATAATTTTTTGTACACATTTTTTAAAGATA [XGTACX_site1784]”, the “gcPBM binding intensity (ln)” value turned out to be 9.28.

As for “TCTTATAATTTACCTACACACAGGAAATATATAAAT [CACACA_site294]”, the “gcPBM binding intensity (ln)” value amounted to 9.48.

Take “ACACAATGTAGTGTATAAATACAATAAAAGGTTGTA [TGCATGCA_negctrl_site251]”: the “gcPBM binding intensity (ln)” value came out at 9.48.

Regarding “TCAGAAATATTACAAAGTACATGCAACGAAAATTTC [XGTACX_site5061]”, the “gcPBM binding intensity (ln)” value stood at 9.37.

For the sequence “TGATATTTAAATTTTGCACACGCATATGAAATTAGG [CACACA_site1034]”, the “gcPBM binding intensity (ln)” value was 9.02.

On to “ATGACGTAGTGGTGTACACACATGGTACCTTTATTC [CACACA_site1547]”, for which the “gcPBM binding intensity (ln)” value was 9.58.

Regarding “AAAAAAATATTCAAAGCATGCCTATTTACACATATT [TGCATGCA_site806]”, the “gcPBM binding intensity (ln)” value is 9.28.

As to “TTTCCCTACCAAAAGTGTACTTATACATATTTTTAT [XGTACX_site5495]”, the “gcPBM binding intensity (ln)” value was determined as 9.17.

On to “ATACGAAAATATTTTGCACACTATAATTATTCATAT [CACACA_site1765]”, for which the “gcPBM binding intensity (ln)” value came to 9.55.

Consider AAAAAAAAAAAAAAAGTGCATTAATAAATTTTAATA, for which the “gcPBM binding intensity (ln)” value came to 8.92.

Consider “ACATCTATGTATAATACACACACTAATATATAATTG [CACACA_site5134]”, for which the “gcPBM binding intensity (ln)” value was 9.62.

As to “ACATATTATTCTTCTTGTACACATAAATTTTATAAA [XGTACX_site299]”, the “gcPBM binding intensity (ln)” value is 9.5.

In the case of “TTTTTTTCATAATATACACACAAAAAAAAAAAAAAA [CACACA_site3224]”, the “gcPBM binding intensity (ln)” value is 8.81.

Take “ATATATATATATATGTGTACATATATATATCATATG [XGTACX_site3126]”: the “gcPBM binding intensity (ln)” value was 9.09.

Consider “TATACTCATATATAAACACACAAAAAAAAAAAAAAA [CACACA_site5165]”, for which the “gcPBM binding intensity (ln)” value was determined as 9.37.

As for “TGTCATGATACATACACACACATACACATACACATA [CACACA_site2135]”, the “gcPBM binding intensity (ln)” value is 10.

Turning to “TATTTAATTATATAAAATTAAATTTTTAATTCTTCC [CACACA_negctrl_site473]”, the “gcPBM binding intensity (ln)” value stood at 8.62.

“AAACAACAAAAATGATATATATAAAATTTATAATAT [XGTACX_negctrl_site185]”: the “gcPBM binding intensity (ln)” value worked out at 9.48.

As for “ATGCATAAAAGAAATACACACATAAATATATAAATA [CACACA_site2163]”, the “gcPBM binding intensity (ln)” value amounted to 9.72.

As for “TATGGATTACACAATTGTACAAGAAAAATGTAAATA [XGTACX_site4040]”, the “gcPBM binding intensity (ln)” value amounted to 9.28.

On to “TCTATTATCCTTTGCACACAAAATAAATGAAAAAAT [CACACA_site3029]”, for which the “gcPBM binding intensity (ln)” value was 9.32.

Turning to “ATATAAGTTTTTTCTCAAAAAGTATAACGAGCATGA [CACACA_negctrl_site1375]”, the “gcPBM binding intensity (ln)” value stood at 9.21.

Regarding “ACATTATATAAATATATACATATATATATATATAAA [GTGCAC_negctrl_site115]”, the “gcPBM binding intensity (ln)” value was found to be 8.95.

“TTTGATAAATGATACACACACAATATTTATAAAATA [CACACA_site7040]”: the “gcPBM binding intensity (ln)” value worked out at 9.72.

Take “CCCACGTATATTTTGTGTACATAAATAAATAAATAA [XGTACX_site4046]”: the “gcPBM binding intensity (ln)” value amounted to 9.1.

With “AAATATAATAATACATTGCACATATATTATATATAT [TGCATGCA_negctrl_site611]”, the “gcPBM binding intensity (ln)” value came to 9.2.

“TGTAATAATCTTCATTTCTTTTTTTTTTTTTTTTGT [CACACA_negctrl_site1388]”: the “gcPBM binding intensity (ln)” value was determined as 8.96.

As for “TAACTTAATAAAAAAAGTACATATATTTTTAATAAA [XGTACX_site2707]”, the “gcPBM binding intensity (ln)” value came out at 9.

Take “AGTGAATATTACGAAACACACAAAAAAATACATTTC [CACACA_site511]”: the “gcPBM binding intensity (ln)” value amounted to 9.64.

Take “TATTTATTTATTTTGTTATAATTAAAATGGATACAT [XGTACX_negctrl_site387]”: the “gcPBM binding intensity (ln)” value came to 9.05.

For “AGTAGTCTGGAGAAGAGTACATAGTATCTGGTAGCT [XGTACX_site2017]”, the “gcPBM binding intensity (ln)” value was 9.19.

“CTACACACTTATAAATGTACAGGATTTAAGTATATG [XGTACX_site8245]”: the “gcPBM binding intensity (ln)” value came out at 9.32.
